Experiments:
[1] = system: NCCCCNCCCN; assay: purified protein, by the assay type; conditions: 37.0 °C
[2] = system: T1, NCCCCNCCCN; assay: purified protein, by the assay type; format: biochemical; conditions: other: representative plot FIG. 3, transgenic mouse liver supernatant, no amantadine; 37.0 °C
T1 construct: from tissue; host or cells: liver 100,000xg supernatant of transgenic and non-transgenic male CD2F1 mice

Work on “spermidine/spermine N1-acetyltransferase (SSAT) (Mus musculus)” yielded a Km [1] of 267 ± 46 µM, a Km [2] of 263 µM and a Vmax [2] of 0.010 nmol/min/mg protein.
